Assay results reported in US11078166B2, “Triazole conjugated ureas, thioureas, carbamates, and reversed carbamates for PSMA-targeted imaging agents and uses thereof” (THE JOHNS HOPKINS UNIVERSITY, priority 2015, dated 2021).

Tested on: PSMA^+ PC3 PIP and PSMA^− PC3 flu xenografts
Experiment: Small animal PET imaging
Format: in vivo, NOD-SCID mice
Settings: for PET: PSMA+ PC3 PIP tumor uptake (in words): as early as 30 min post-injection

SMILES: O=C(O)CC[C@H](NC(=O)N[C@@H](CCCCNC(=O)CCCCCCC(=O)N[C@@H](CCCCNC(=O)CCc1cn(CC[18F])nn1)C(=O)O)C(=O)O)C(=O)O [[^18F]YC-71]
- PET: PSMA+ PC3 PIP tumor uptake (in words): Intense PSMA^+ PC3 PIP tumor uptake
- PET: binding to PSMA-negative PC3-flu tumor (in words) (mouse, in vivo): no significant binding

SMILES: O=C(O)CC[C@H](NC(=O)N[C@@H](CCCCNC(=O)CCc1cn(CC[18F])nn1)C(=O)O)C(=O)O [[^18F]YC-88, 2-[3-(1-carboxy-5-{3-[1-(2-[^18F]fluoroethyl)-1H-1,2,3-triazol-yl]propanamido}pentyl)ureido]-pentanedioic acid]
- PET: PSMA+ PC3 PIP tumor uptake (in words): Intense PSMA^+ PC3 PIP tumor uptake
- PET: uptake in normal tissues (in words) (mouse, in vivo): extremely low uptake
